Assay results as given in the supplement of paper PMC4967469.
pIC50: −log10 of the molar value. IC50 is the fitted dose that halves viability relative to control wells, and lower means more sensitive; where the fit passes the top or lowest dose, that dose stands as a limit. AUC is the area under the same curve over the 256-fold range up to the top dose, as a fraction; the more sensitive the line, the further below 1. For part of these data: Where the top dose is marked as inferred, it comes from the curve model; the source does not state it. For part of these data: Where an entry number is given, a second screen of the drug exists; the two often differ.

Legend:
Experiment in all cases: Viability of human cancer cell lines after 72 h of drug (GDSC screen)
5-Fluorouracil = compound: O=c1[nH]cc(F)c(=O)[nH]1 [5-Fluorouracil]; settings: top dose 32 µM; top dose inferred
Method: (§1)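 Human cancer cell lines in 384-well plates, medium with 10% serum, drug for 72 h over a 256-fold dose range (nine 2-fold or five 4-fold steps up to the top dose). Adherent lines were fixed and stained with the nucleic acid dye Syto60, suspension lines read with resazurin; signal relative to control wells, capped at 0 and 100%. One two-parameter sigmoid per drug and line, fitted in a mixed model over all curves with the slope shared within a line.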

RDEA119 = compound: COc1cc(F)c(F)c(Nc2ccc(I)cc2F)c1NS(=O)(=O)C1(C[C@H](O)CO)CC1 [RDEA119]; settings: top dose 5 µM, top dose inferred
Method: as §1

JNK-9L = compound: Fc1cc(-c2ccnc(Nc3ccc(-n4cnc(N5CCOCC5)n4)cc3)n2)cc(N2CCOCC2)c1 [JNK-9L]; settings: top dose 5.12 µM; top dose inferred
Method: as §1

AC220 = compound: CC(C)(C)c1cc(NC(=O)Nc2ccc(-c3cn4c(n3)sc3cc(OCCN5CCOCC5)ccc34)cc2)no1 [AC220]; settings: top dose 1.024 µM; top dose inferred
Method: as §1

OSU-03012 = compound: NCC(=O)Nc1ccc(-n2nc(C(F)(F)F)cc2-c2ccc3c(ccc4ccccc43)c2)cc1 [OSU-03012]; settings: top dose 16 µM; top dose inferred
Method: as §1

QS11 = compound: OC[C@H](Cc1ccccc1)Nc1nc(Oc2ccc3c(c2)CCC3)nc2c1ncn2Cc1ccc(-c2ccccc2)cc1 [QS11]; settings: top dose 10.24 µM
Method: as §1

CUDC-101 = compound: C#Cc1cccc(Nc2ncnc3cc(OC)c(OCCCCCCC(=O)NO)cc23)c1 [CUDC-101]; settings: top dose 5.12 µM; top dose inferred
Method: as §1

| Cell Line | AUC (5-Fluorouracil) | pIC50 (5-Fluorouracil) | AUC (RDEA119; screen: GDSC drug entry 1014) | pIC50 (RDEA119; screen: GDSC drug entry 1014) | AUC (RDEA119; screen: GDSC drug entry 1526) | pIC50 (RDEA119; screen: GDSC drug entry 1526) | AUC (JNK-9L) | pIC50 (JNK-9L) | AUC (AC220) | pIC50 (AC220) | AUC (OSU-03012) | pIC50 (OSU-03012) | AUC (QS11) | pIC50 (QS11) | AUC (CUDC-101) | pIC50 (CUDC-101) |
| --- | --- | --- | --- | --- | --- | --- | --- | --- | --- | --- | --- | --- | --- | --- | --- | --- |
| BE-13 (lymphoblastic leukaemia, suspension) | 0.903 | < 4.49 | 0.954 | < 5.30 | 0.949 | < 5.30 | 0.607 | 6.21 | 0.941 | < 5.99 | 0.764 | 5.26 | 0.922 | < 4.99 | 0.213 | 7.31 |
| BEN (non-small cell lung carcinoma, adherent) | 0.838 | 4.58 |  |  | 0.976 | < 5.30 | 0.61 | 6.17 | 0.98 | < 5.99 | 0.744 | 5.25 | 0.971 | < 4.99 | 0.692 | 5.92 |
| BFTC-905 (bladder, adherent) | 0.905 | < 4.49 | 0.669 | 6.07 | 0.717 | 5.94 | 0.234 | 7.20 | 0.99 | < 5.99 | 0.621 | 5.69 | 0.813 | 5.34 | 0.607 | 6.22 |
| BFTC-909 (kidney, adherent) | 0.957 | < 4.49 |  |  | 0.931 | < 5.30 | 0.559 | 6.34 | 0.984 | < 5.99 | 0.7 | 5.44 | 0.955 | < 4.99 | 0.735 | 5.83 |
| BHT-101 (thyroid, adherent) | 0.824 | 4.70 | 0.351 | 6.92 | 0.385 | 6.83 | 0.589 | 6.25 | 0.983 | < 5.99 | 0.838 | 4.95 | 0.982 | < 4.99 | 0.528 | 6.42 |
| BHY (head and neck, adherent) | 0.882 | < 4.49 | 0.828 | 5.51 | 0.891 | < 5.30 | 0.612 | 6.19 | 0.986 | < 5.99 | 0.575 | 5.79 | 0.81 | 5.27 | 0.403 | 6.76 |
| BICR10 (head and neck, adherent) | 0.976 | < 4.49 | 0.86 | < 5.30 | 0.867 | < 5.30 | 0.608 | 6.18 | 0.983 | < 5.99 | 0.783 | 5.11 | 0.985 | < 4.99 | 0.87 | < 5.29 |
| BICR22 (head and neck, adherent) | 0.884 | < 4.49 | 0.641 | 6.09 | 0.577 | 6.28 | 0.69 | 5.92 | 0.977 | < 5.99 | 0.843 | 4.86 | 0.983 | < 4.99 | 0.58 | 6.26 |
| BICR78 (head and neck, adherent) | 0.892 | < 4.49 | 0.498 | 6.51 | 0.663 | 6.02 | 0.656 | 6.03 | 0.978 | < 5.99 | 0.758 | 5.20 | 0.983 | < 4.99 | 0.467 | 6.59 |
| BL-41 (Burkitt lymphoma, suspension) | 0.79 | 4.97 | 0.994 | < 5.30 | 0.983 | < 5.30 | 0.48 | 6.54 | 0.97 | < 5.99 | 0.525 | 5.94 | 0.799 | 5.44 | 0.149 | 7.40 |
| BPH-1 (prostate, adherent) | 0.747 | 4.95 | 0.397 | 6.80 | 0.565 | 6.32 | 0.535 | 6.40 | 0.962 | < 5.99 | 0.752 | 5.24 | 0.982 | < 4.99 | 0.226 | 7.34 |
| BT-483 (breast, adherent) | 0.735 | 4.75 | 0.945 | < 5.30 | 0.971 | < 5.30 | 0.809 | < 5.29 | 0.957 | < 5.99 | 0.939 | < 4.80 | 0.918 | < 4.99 | 0.976 | < 5.29 |
| BV-173 (chronic myeloid leukaemia, suspension) | 0.424 | 5.90 | 0.735 | 5.88 | 0.873 | 5.42 | 0.67 | 6.05 | 0.95 | < 5.99 | 0.837 | 5.05 | 0.979 | < 4.99 | 0.187 | 7.36 |
| Becker (glioma, adherent) | 0.955 | < 4.49 | 0.787 | 5.61 | 0.781 | 5.63 | 0.587 | 6.24 | 0.975 | < 5.99 | 0.762 | 5.19 | 0.979 | < 4.99 | 0.826 | 5.44 |
| C2BBe1 (large intestine, adherent) | 0.902 | < 4.49 | 0.593 | 6.23 | 0.873 | < 5.30 | 0.629 |  | 0.985 | < 5.99 | 0.785 | 5.10 | 0.931 | < 4.99 | 0.729 | 5.80 |
| C3A (liver, adherent) | 0.987 | < 4.49 | 0.879 | < 5.30 | 0.755 | 5.75 | 0.535 | 6.40 | 0.988 | < 5.99 | 0.676 | 5.50 | 0.936 | < 4.99 | 0.779 | 5.66 |
| C-4-I (cervix, adherent) | 0.959 | < 4.49 | 0.745 | 5.77 | 0.914 | < 5.30 | 0.537 | 6.39 | 0.986 | < 5.99 | 0.798 | 5.08 | 0.964 | < 4.99 | 0.753 | 5.74 |
